Source: the RNAGym collection of RNA variant scans (doi:10.7554/elife.90254)
The source gives no read counts; variants with many changes may rest on few reads.

B1: LINE1-mini (parent)
chain: GGCAGAGCUCAACACAGCGUGGCAAAGUGGCUGUGGCUAGACUGCC

Variants of: B1
Test: self-cleavage, relative activity (ratio to wild type); higher = more cleavage; in vitro, sequencing; the parent is a self-cleaving ribozyme

Variant | self-cleavage
A16U C18A G35U | 0.03
C3A A12G U32A | 0.64
C13U G22C G29A G40C | 0.08
C8G C15A G22U C37U | 0.06
C3G A11U C23U C45G | 0.01
A4G C8U C46G | 0.33
G7A C18U U28C G30A | 0.04
G2C C8G C10A U28A | 0.01
U20G A25G C31U G33C G40U A41U | 0.09
C10G A14C G44A | 0.05
C3G A11U C23A C37G | 0
C8A C31A G40U | 0.1
C13U C23G G40A G44C C45U | 0.04
G1U A26G G30A | 1.49
G7U U9C C18G A24U A41C | 0.03
C18U A25U C37G | 0.02
C8U G35C G36U C37A G44C C46G | 0.31
G2U G5A U20A U34A | 0.01
G5C C10A C13U C42G G44U | 0.02
G21U C23A G29U | 0.28
A25U G29U C45U | 1.43

Variant | self-cleavage
G5C G27A U32A C46A | 0.02
G17U G27C G40U C42U | 0.02
C8A G36U C42A C45A | 0.05
G7C A39U G44A | 0.11
A6C G7U A11C A26C U34A | 0.03
C13U U32C C46G | 0.06
G19A C23A A26G G29C C42A | 0.03
G5A C15U G21C G29A G40U | 0.14
G30A C37A A41C | 0.02
G2U C18G G30U C46A | 0.04
U20A G27U G29U | 0.25
C3U G19A A25G G27C G30C C45U | 0.18
C10A C23G G29C | 0.03
G1U C13G C23A C31A | 0.15
A12U G22C G33U | 0.02
C15U A24G U34A G44U C46U | 0.18
C3G G17A C23A | 0.39
C31U C37A C45U | 0.03
A12U C31A G35U | 0.01
G1C G27A U32A | 0.01
C3U A4G A25U | 0.62

Variant | self-cleavage
C3A C13U C18G | 0.13
U9G C10A C13A C18U | 0
G1A G2U A26U G30C | 0.73
A16G G30U U43C | 0.01
C8A C15A A24C G30A | 0.27
G7A C13A G17C C18A | 0.05
C3G G17C G22A G35C G40U A41G | 0.06
G2U A12U C13A G40A C45G | 0.02
A11U C18A A39U A41G | 0.01
G1U U9C C37U | 0.02
G2C A12G G33A | 0.04
U20G G21C G27U | 0.42
G21U A24G C37G | 0.07
G5U A16C A26U G29C G35U | 0.01
G35C C42G G44U | 0.01
G1U C10A G17A A24U G44U | 0.02
C8U G19C C46U | 0.11
A4C G5A C23U | 0.21
A11U C13A G22A A24U | 0.01
G36A A41U U43G | 0.09
G22C G29U G30A | 1.08

Variant | self-cleavage
C10U C23U G30U G33C | 0.04
C23G A24U C42A | 0.03
C8A C10G G29C | 0.02
C3G A26G U38G G44C | 0.01
C3A A4U G36A C37A | 0.39
A11U A12G C15U G22U U38A | 0.01
C13G G36C G44U | 0.04
A11C G29A G36U | 0.02
G1U C13A G22A C37A G44A C45U | 0.08
C10A A14C G21C U28C | 0.01
A25U G30C C31U | 1.64
A4U A6G C18A | 0.11
A6C C8U G19C G33C G35U A39C | 0.18
G5U G36A A41G | 0.14
C3A A26G G36U | 0.16
C8G A11G C13U G22U | 0.02
G2U A4G G22U A24U U34A A39U C46A | 0.07
G5A U28G U34A G35C G44U | 0.02
G5U G27U G40U | 0.04
G22C G30C U38C | 0.14
A16U U20A A25U C42A | 0.13
